Structures can show the parent of a compound that is named as a salt.
Tested on: MLKL phosphorylation, HT29-L23 human colorectal adenocarcinoma cells
Assay: cells
Conditions: read-out: pMLKL HCS Cell Assay (IC50, uM)

Q: `Nc1ncnn2c(-c3ccc(Cl)c(C(=O)N[C@@H]4CN(C(=O)c5cc(C(F)(F)F)ccn5)C[C@@H]4F)c3)cc(C(F)(F)F)c12` [Example 943, 5-[4-amino-5-(trifluoromethyl)pyrrolo[2,1-f][1,2,4]triazin-7-yl]-2-chloro-N-[(3R,4S)-4-fluoro-1-[4-(trifluoromethyl)pyridine-2-carbonyl]pyrrolidin-3-yl]benzamide] was tested. Which IC50 did it give?
A: 0.326 µM

Q: `COc1ncc(-c2ccc3c(N)ncnn23)cc1C(=O)Nc1cnn(Cc2ccccc2)c1` [Example 153, 5-{4-aminopyrrolo[2,1-f][1,2,4]triazin-7-yl}-N-(1-benzyl-1H-pyrazol-4-yl)-2-methoxypyridine-3-carboxamide] was tested. Which IC50 did it give?
A: 0.014 µM

Q: Which IC50 does the source give for `Cc1ccc(-c2cc(C(F)(F)F)c3c(N)ncnn23)c(F)c1C(=O)N[C@@H]1CN(C(=O)C2CCC(F)(F)C2)C[C@@H]1F` (stereo partly drawn) [Example 762, 3-[4-amino-5-(trifluoromethyl)pyrrolo[2,1-f][1,2,4]triazin-7-yl]-N-[(3R,4S)-1-(3,3-difluorocyclopentanecarbonyl)-4-fluoropyrrolidin-3-yl]-2-fluoro-6-methylbenzamide] here?
A: 0.002 µM

Q: How did the IC50 turn out when `COc1ncc(-c2cc(C(F)(F)F)c3c(N)ncnn23)cc1C(=O)N[C@@H]1CN(C(=O)N2CCCC2)C[C@@H]1F` [Example 333, 5-[4-amino-5-(trifluoromethyl)pyrrolo[2,1-f][1,2,4]triazin-7-yl]-N-[(3R,4S)-4-fluoro-1-(pyrrolidine-1-carbonyl)pyrrolidin-3-yl]-2-methoxypyridine-3-carboxamide, TFA] was run?
A: 0.039 µM

Q: How did the IC50 turn out when `CCc1ccc(-c2cc(C(F)(F)F)c3c(N)ncnn23)c(F)c1C(=O)N[C@@H]1CN(C(=O)CC(C)C)C[C@@H]1F` [Example 738, 3-[4-amino-5-(trifluoromethyl)pyrrolo[2,1-f][1,2,4]triazin-7-yl]-6-ethyl-2-fluoro-N-[(3R,4S)-4-fluoro-1-(3-methylbutanoyl)pyrrolidin-3-yl]benzamide] was run?
A: 0.099 µM

Q: Which IC50 does the source give for `COc1ncc(-c2cc(C(F)(F)F)c3c(N)ncnn23)cc1C(=O)NC1CN(Cc2cccc(C#N)c2)CC1F` (racemic) [Example 227, 5-[4-amino-5-(trifluoromethyl)pyrrolo[2,1-f][1,2,4]triazin-7-yl]-N-{1-[(3-cyanophenyl)methyl]-4-fluoropyrrolidin-3-yl}-2-methoxypyridine-3-carboxamide] here?
A: 0.0038 µM

Q: How did the IC50 turn out when `COc1ncc(-c2cc(C(F)(F)F)c3c(N)ncnn23)cc1C(=O)N[C@H](C)c1cc(C(F)(F)F)ccc1F` [Example 1351, 5-[4-amino-5-(trifluoromethyl)pyrrolo[2,1-f][1,2,4]triazin-7-yl]-N-[(1R)-1-[2-fluoro-5-(trifluoromethyl)phenyl]ethyl]-2-methoxypyridine-3-carboxamide] was run?
A: 0.029 µM

Q: With `COc1ncc(-c2cc(CN3CCC(F)(F)CC3)c3c(N)ncnn23)cc1C(=O)NC1CN(C(=O)[C@@](C)(O)C(F)(F)F)CCC1F` (stereo partly drawn) [Example 1663, 5-{4-amino-5-[(4,4-difluoropiperidin-1-yl)methyl]pyrrolo[2,1-f][1,2,4]triazin-7-yl}-N-{4-fluoro-1-[(2R)-3,3,3-trifluoro-2-hydroxy-2-methylpropanoyl]piperidin-3-yl}-2-methoxypyridine-3-carboxamide] as the compound, how does the IC50 read?
A: 0.0063 µM

Q: Which IC50 does the source give for `Nc1ncnn2c(-c3ccc(Cl)c(C(=O)N[C@@H]4CN(C(=O)c5cnccc5C(F)(F)F)C[C@@H]4F)c3)cc(C(F)(F)F)c12` [Example 953] here?
A: 0.182 µM

Q: With `CCC(O)(C(=O)N1C[C@H](F)[C@H](NC(=O)c2cc(-c3cc(C(F)(F)F)c4c(N)ncnn34)ccc2CF)C1)C(F)(F)F` (stereo partly drawn) [Example 922, 5-[4-amino-5-(trifluoromethyl)pyrrolo[2,1-f][1,2,4]triazin-7-yl]-N-[(3R,4S)-4-fluoro-1-[2-hydroxy-2-(trifluoromethyl)butanoyl]pyrrolidin-3-yl]-2-(fluoromethyl)benzamide] as the compound, how does the IC50 read?
A: 0.0042 µM

Q: With `Nc1ncnn2c(-c3ccc(F)c(C(=O)NCC[C@H](O)c4ccc(Cl)cc4)c3)cc(C(F)(F)F)c12` [Example 248, 5-[4-amino-5-(trifluoromethyl)pyrrolo[2,1-f][1,2,4]triazin-7-yl]-N-[(3S)-3-(4-chlorophenyl)-3-hydroxypropyl]-2-fluorobenzamide] as the compound, how does the IC50 read?
A: 0.026 µM

Q: How did the IC50 turn out when `COc1ncc(-c2cc(C(F)(F)F)c3c(N)ncnn23)cc1C(=O)N[C@@H]1CN(C(=O)C2CC2(F)F)C[C@@H]1F` (stereo partly drawn) [Example 303, 5-[4-amino-5-(trifluoromethyl)pyrrolo[2,1-f][1,2,4]triazin-7-yl]-N-[(3R,4S)-1-(2,2-difluorocyclo-propanecarbonyl)-4-fluoro-pyrrolidin-3-yl]-2-methoxy-pyridine-3-carboxamide] was run?
A: 0.028 µM

Q: Which IC50 does the source give for `Nc1ncnn2c(-c3cccc(C(=O)NCCC(O)c4ccccc4)c3)ccc12` (stereo not shown) [Example 59, 3-(4-aminopyrrolo[2,1-f][1,2,4]triazin-7-yl)-N-(3-hydroxy-3-phenylpropyl)benzamide] here?
A: 0.231 µM

Q: Which IC50 does the source give for `COc1ncc(-c2cc(C(F)(F)F)c3c(N)ncnn23)cc1C(=O)NC1CN(Cc2cccnc2)CC1F` (racemic) [Example 203, 5-[4-amino-5-(trifluoromethyl)pyrrolo[2,1-f][1,2,4]triazin-7-yl]-N-{4-fluoro-1-[(pyridin-3-yl)methyl]pyrrolidin-3-yl}-2-methoxypyridine-3-carboxamide] here?
A: 0.014 µM

Q: `CC(C)(O)C(=O)N1C[C@H](F)[C@H](NC(=O)c2cc(-c3cc(C(F)(F)F)c4c(N)ncnn34)ccc2Cl)C1` [Example 929, 5-[4-amino-5-(trifluoromethyl)pyrrolo[2,1-f][1,2,4]triazin-7-yl]-2-chloro-N-[(3R,4S)-4-fluoro-1-(2-hydroxy-2-methylpropanoyl)pyrrolidin-3-yl]benzamide] was tested. Which IC50 did it give?
A: 0.05 µM

Q: Which IC50 does the source give for `Cc1ccc(-c2cc(CN3CCC(C(F)(F)F)CC3)c3c(N)ncnn23)cc1C(=O)N[C@@H]1CN(C(=O)[C@@](C)(O)C(F)(F)F)C[C@@H]1F` [Example 1647, 5-(4-amino-5-{[4-(trifluoromethyl)piperidin-1-yl]methyl}pyrrolo[2,1-f][1,2,4]triazin-7-yl)-N-[(3R,4S)-4-fluoro-1-[(2R)-3,3,3-trifluoro-2-hydroxy-2-methylpropanoyl]pyrrolidin-3-yl]-2-methylbenzamide] here?
A: 0.00086 µM

Q: With `Nc1ncnn2c(-c3ccc(Cl)c(C(=O)N[C@@H]4CN(C(=O)CC(O)(C(F)(F)F)C(F)(F)F)C[C@@H]4F)c3)cc(C(F)(F)F)c12` [Example 931, 5-[4-amino-5-(trifluoromethyl)pyrrolo[2,1-f][1,2,4]triazin-7-yl]-2-chloro-N-[(3R,4S)-4-fluoro-1-[4,4,4-trifluoro-3-hydroxy-3-(trifluoromethyl)butanoyl]pyrrolidin-3-yl]benzamide] as the compound, how does the IC50 read?
A: 0.0027 µM

Q: Which IC50 does the source give for `COc1cc(-c2cc(C(F)(F)F)c3c(N)ncnn23)cc(C(=O)N[C@@H]2CN(C(=O)c3ccccc3F)C[C@@H]2F)c1OC` [Example 594, 5-[4-amino-5-(trifluoromethyl)pyrrolo[2,1-f][1,2,4]triazin-7-yl]-N-[(3R,4S)-4-fluoro-1-(2-fluorobenzoyl)pyrrolidin-3-yl]-2,3-dimethoxybenzamide] here?
A: 0.245 µM

Q: `Cc1cc(F)c(-c2cc(C(F)(F)F)c3c(N)ncnn23)cc1C(=O)N[C@@H]1CN(C(=O)C2CCC(F)(F)C2)C[C@@H]1F` (stereo partly drawn) [Example 859, 5-[4-amino-5-(trifluoromethyl)pyrrolo[2,1-f][1,2,4]triazin-7-yl]-N-[(3R,4S)-1-(3,3-difluorocyclopentanecarbonyl)-4-fluoropyrrolidin-3-yl]-4-fluoro-2-methylbenzamide] was tested. Which IC50 did it give?
A: 0.0035 µM
